Hit rate of the full screen: of about 390,000 compounds, about 150 (0.038%) were called active. Inconclusive means that the source gave no clear call. Such entries were picked first, then a sample of the others. The call rests on the fitted dose curve; in most records, active means well fitted inhibition curve with a large enough effect; inconclusive means small, poorly fitted or top-dose-only effect; inactive means no such curve, though single readings can be large or run the other way. Potencies of inconclusive entries are doubtful fits and often do not repeat.
biological target: Regulator of G-protein signaling 4 (Homo sapiens) (UniProt P49798); test: Inhibitors of Regulator of G Protein Signaling (RGS) 4: qHTS; details: Transcreener GDP fluorescence polarization, RGS4-accelerated GTP hydrolysis; series mostly up to 114 µM; activity change, negative = inhibition: at the top concentration; further: nearly all actives have a fitted effect of over 75% in size
Chain of UniProt P49798 (P49798 whole entry, looked up): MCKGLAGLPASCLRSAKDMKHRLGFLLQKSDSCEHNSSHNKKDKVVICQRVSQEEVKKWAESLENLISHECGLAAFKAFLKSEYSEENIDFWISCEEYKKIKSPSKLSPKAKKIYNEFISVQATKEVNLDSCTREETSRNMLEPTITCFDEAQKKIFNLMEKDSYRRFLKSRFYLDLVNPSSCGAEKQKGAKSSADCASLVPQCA
Summary of the method: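 MLSMR compounds (23 nl, pin-transferred) preincubated 10 min at room temperature with a 500nM (2x) first reagent, then RGS4 at 900nM (2x) plus Transcreener GDP mix added; fluorescence polarization (620/688 nm) read before and after 90 min at 30 °C.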
On the % scale 0 is the no-effect control and ±100 the full control effect; potency means the concentration at half of the fitted maximal effect; tags describe the fitted curve by direction and shape.

SMILES	Potency	activity change, negative = inhibition
C#CCN1C(=O)S/C(=C\c2ccc(-c3ccc(C(=O)O)cc3C)o2)C1=O	inconclusive: 50.1 µM [inhibitor, partial curve, poor fit]	–
COc1ccc(NC(=O)C2=CC(c3ccc4c(c3)OCO4)=NS(=O)(=O)N2C)cc1	inconclusive: 89.1 µM [inhibitor, partial curve, poor fit]	–
CC[N+]1(C)CCC(O)(c2ccc(OC)cc2)C(C(=O)c2ccc(OC)cc2)C1 (stereo unspecified)	inconclusive: 79.4 µM [inhibitor, partial curve, poor fit]	–
O=C(CCSc1nnc(-c2ccccc2)o1)N1CCOCC1	inconclusive: 89.1 µM [inhibitor, single point]	–
Clc1cccc(-n2cc(-c3ccccc3)c3c(N4CCCCC4)ncnc32)c1	–	inactive: 2.07%
COc1ccc(OC)c(NC(=O)CSc2nnc3ccc(-c4ccccn4)nn23)c1	inconclusive: 89.1 µM [inhibitor, single point]	–
O=C1/C(=C/c2cccnc2)SC(=S)N1c1ccc(O)cc1	inconclusive: 100 µM [inhibitor, single point]	–
CN(C)c1ccc(N2C(=O)CC(Sc3ccccc3C(=O)O)C2=O)cc1 (stereo unspecified)	inconclusive: 89.1 µM [inhibitor, single point]	–
Cn1ncc(Cl)c1C(=O)Nc1cccc(Cl)c1	inconclusive: 100 µM [inhibitor, partial curve, poor fit]	–
COc1ccc(C2=Nn3c(nnc3-c3ccncc3)SC2)cc1	–	inactive: 12%
Oc1ccc(C[C@H]2CNCCN2CCCCC2CCCCC2)cc1	–	inactive: -0.583%
O=C(NCC1CCN(c2ccc(S(=O)(=O)N3CCOCC3)cc2)CC1)Nc1ccccc1	inconclusive: 100 µM [inhibitor, partial curve, poor fit]	–
Cn1c(=O)c2c(nc(N3CCCC3)n2CC(O)CO)n(C)c1=O (stereo unspecified)	–	inactive: -27.4%
CCN1CCN(c2cc(C)c3cc(NC(=O)c4ccc(OC)c(OC)c4)ccc3n2)CC1	inactive	–
Cc1cccc(NC(=O)c2nc(S(=O)(=O)Cc3ccccc3)ncc2Cl)c1	inconclusive: 50.1 µM [inhibitor, partial curve, poor fit]	–
O=C(Nc1ccc(C2=NCCN2)cc1)c1ccc(C(=O)Nc2ccc(C3=NCCN3)cc2)c([N+](=O)[O-])c1	inconclusive: 50.1 µM [inhibitor, partial curve, poor fit]	–
COc1ccc(NS(=O)(=O)c2cc(NC(=O)c3cnccn3)ccc2N2CCCC2)cc1	inconclusive: 39.8 µM [inhibitor, partial curve, poor fit]	–
CC1(C)CN=c2s/c(=C\c3ccc(Cl)cc3)c(=O)n2C1	inconclusive: 79.4 µM [inhibitor, partial curve, poor fit]	–
COc1ccc(CN(C)C(=O)C23CC4CC(CC(C4)C2)C3)c(OC)c1	inconclusive: 89.1 µM [inhibitor, single point]	–
CN1C(=O)/C(=C/c2ccco2)SC1=Nc1cccc(C(=O)O)c1	inconclusive: 89.1 µM [inhibitor, partial curve, poor fit]	–
COc1ccc(-c2noc(CCC(=O)N3CCN(c4cccc(Cl)c4)CC3)n2)cc1	–	inactive: 17.3%

SMILES	Potency	activity change, negative = inhibition
Cc1cc([N+](=O)[O-])ccc1Nc1nc2ccccc2n2cnnc12	inconclusive: 17.8 µM [inhibitor, full curve, poor fit]	–
N#Cc1cc([N+](=O)[O-])ccc1N1CCCC1	inconclusive: 56.2 µM [inhibitor, partial curve, poor fit]	–
CN1CCN(c2oc(-c3cccs3)nc2S(=O)(=O)c2ccccc2)CC1	–	inactive: 0.21%
CCN(CC)c1ccc(C(=O)OCC(=O)NC2CCCCC2C)cc1 (stereo unspecified)	inconclusive: 56.2 µM [inhibitor, partial curve, poor fit]	–
Cc1oc2c(c1C(=O)c1ccccc1)C(=O)C(=O)c1ccccc1-2	inconclusive: 100 µM [inhibitor, partial curve, poor fit]	–
Cc1ccc2nc(-c3ccc(C)o3)c(Nc3ccc(Cl)cc3)n2c1	inconclusive: 50.1 µM [inhibitor, partial curve, poor fit]	–
COc1ccc(C)cc1NC(=O)Nc1ccccc1	inconclusive: 89.1 µM [inhibitor, single point]	–
CCC(C)c1ccc(OCC(=O)Nc2ccc(-c3nc4ncccc4o3)cc2)cc1 (stereo unspecified)	–	inactive: -34.9%
CCCC(=O)Nc1sc2c(c1C(=O)Nc1ccccn1)CCCC2	inconclusive: 100 µM [inhibitor, single point]	–
O=C(N/N=C/c1ccc([N+](=O)[O-])o1)c1cc(-c2ccncc2)nc2ccccc12	–	inactive: 17%
CC12CCC=CC1C(c1cccc(Br)c1)N(Cc1ccccc1)C2=O (stereo unspecified)	inconclusive: 50.1 µM [inhibitor, partial curve, poor fit]	–
COc1ccc(C(=O)C[n+]2ccccc2C)cc1	inconclusive: 44.7 µM [inhibitor, partial curve, poor fit]	–
CCCOC(=O)c1c(-c2ccc(C)cc2C)csc1NC(=O)C1C2CCC(O2)C1C(=O)O (stereo unspecified)	inconclusive: 50.1 µM [inhibitor, partial curve, poor fit]	–
O=C(Nc1ccc(Br)cc1)c1cccc(S(=O)(=O)N2CCc3ccccc32)c1	–	inactive: -8.48%
CCOc1cc(NC2CS(=O)(=O)CC2O)c(OCC)cc1NC(=O)c1ccccc1 (stereo unspecified)	inconclusive: 89.1 µM [inhibitor, single point]	–
Cc1cc2[nH]ncc2cc1NC(=S)NC(=O)c1ccccc1	inconclusive: 89.1 µM [inhibitor, single point]	–
CCOC(=O)c1c(S(=O)(=O)NCCCc2ccco2)c(C)n(C)c1C	inconclusive: 50.1 µM [inhibitor, partial curve, poor fit]	–
C/C(=C\C(=O)c1ccccc1)Nc1ccc(O)cc1	inconclusive: 89.1 µM [inhibitor, single point]	–
Cc1ccc(NC(=O)COC(=O)c2ccc3c(c2)OCCO3)cc1S(=O)(=O)N1CCOCC1	–	inactive: -15.7%
CC1SC(=S)N(c2ccc(N(C)C)cc2)C1=O (stereo unspecified)	inconclusive: 50.1 µM [inhibitor, partial curve, poor fit]	–

— PubChem BioAssay AID504845 (National Center for Advancing Translational Sciences (NCATS), 2011)
